Assay [1] has as its target T1, Human PD-L1 (human, UniProt Q9NZQ7 partial chain).
T1 construct: Amine-coupled to a CM5 chip for SPR; also called recombinant human PD-L1
The experiment in a line: SPR, PD-L1 amine-coupled, variant as analyte. (In SPR one partner is held on a chip, and binding of the other changes the refractive index at the surface.)

The target of the next assay is T2, Mouse PD-L1 (mouse, UniProt Q9EP73 partial chain, limits assumed).
T2 construct: Amine-coupled to a CM5 chip for SPR; also called recombinant mouse PD-L1
The experiment in a line: SPR, PD-L1 amine-coupled, variant as analyte.

In the next assay the target is T3, Cynomolgus monkey PD-L1 (cynomolgus monkey, UniProt G7PSE7 19-239).
T3 construct: Amine-coupled to a CM5 chip for SPR; also called recombinant cynomolgus monkey PD-L1
The experiment in a line: SPR, PD-L1 amine-coupled, variant as analyte.

For assay [2], the target named is Human CD3 (recombinant) (human). The experiment in a line: SPR, CD3 amine-coupled, variant as analyte, 1:1 model.
Assay [3] addresses T4, PD-L1 on cells (UniProt Q9NZQ7). The experiment in a line: cell-based or functional assay.
A further assay addresses T5, Human PD-L2 (human, UniProt Q9BQ51 20-219).
T5 construct: Amine-coupled to a CM5 chip for SPR; also called recombinant PD-L2
T5 sequence (looked up): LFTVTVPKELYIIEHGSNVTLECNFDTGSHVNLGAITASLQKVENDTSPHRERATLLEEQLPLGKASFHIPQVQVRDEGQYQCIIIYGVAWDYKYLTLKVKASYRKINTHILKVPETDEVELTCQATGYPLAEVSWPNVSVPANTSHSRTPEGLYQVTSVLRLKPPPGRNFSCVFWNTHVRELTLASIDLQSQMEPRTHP
The experiment in a line: SPR, PD-L2 amine-coupled, variant as analyte.

The target of assay [4] is T1, Human PD-L1. The experiment in a line: SPR, PD-L1 amine-coupled, variant as analyte, 1:1 model.
T1 sequence (Q9NZQ7 19-239 limits assumed): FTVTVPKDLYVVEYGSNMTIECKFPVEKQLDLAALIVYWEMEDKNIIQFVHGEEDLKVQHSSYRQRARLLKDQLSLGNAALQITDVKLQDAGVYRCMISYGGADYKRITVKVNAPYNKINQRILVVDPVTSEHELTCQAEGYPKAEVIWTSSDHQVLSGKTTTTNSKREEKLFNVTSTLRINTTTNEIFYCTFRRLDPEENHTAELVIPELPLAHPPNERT
For assay [5], the target named is T1, Human PD-L1. The experiment in a line: SPR, PD-L1 amine-coupled, variant as analyte, 1:1 model; first of three variants in the merged cell (HAC PD-1).
For assay [6], the target named is T4, PD-L1 on cells. The experiment in a line: cell-based or functional assay. The source holds these as a separate data set.
T4 sequence (Q9NZQ7 19-290 limits assumed): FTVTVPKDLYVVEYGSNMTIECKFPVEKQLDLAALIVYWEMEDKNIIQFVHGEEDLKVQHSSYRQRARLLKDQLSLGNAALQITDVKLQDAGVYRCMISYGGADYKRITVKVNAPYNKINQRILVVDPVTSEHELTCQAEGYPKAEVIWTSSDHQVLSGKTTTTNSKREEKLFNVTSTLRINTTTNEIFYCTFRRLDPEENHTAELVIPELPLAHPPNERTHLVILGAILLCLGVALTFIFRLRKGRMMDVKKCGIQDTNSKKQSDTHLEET
Assay [7] addresses Human CD3 (recombinant) (human). The experiment in a line: SPR, CD3 amine-coupled, variant as analyte, 1:1 model. This is another data set of the same source.
For assay [8], the target named is T1, Human PD-L1. The experiment in a line: SPR, PD-L1 amine-coupled, variant as analyte, 1:1 model. This is another data set of the same source.
The target of the next assay is T6, Human mesothelin (human, UniProt Q13421 296-580, limits assumed).
T6 construct: Amine-coupled to a CM5 chip for SPR; also called MSLN; recombinant human mesothelin
The experiment in a line: SPR, mesothelin amine-coupled; apparent KD, variant binds mesothelin bivalently but was fit 1:1.

Read-outs that look alike come from different tables or passages of the source.

Human CD3 (recombinant), sequence (chain, as listed by the source): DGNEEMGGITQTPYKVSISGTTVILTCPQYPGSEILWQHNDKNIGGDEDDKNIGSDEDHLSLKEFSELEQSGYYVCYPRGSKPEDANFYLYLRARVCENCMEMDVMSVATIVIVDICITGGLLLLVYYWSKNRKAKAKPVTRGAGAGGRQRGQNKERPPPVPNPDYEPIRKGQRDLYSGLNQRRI
Cynomolgus monkey PD-L1, sequence (G7PSE7 entry or part of it): as the sequence (Q9NZQ7 19-239 limits assumed) above, with A33T, A34S, S62N, R68Q, Q82R, F173L, T185A, T192I, H215L counted along it
Mouse PD-L1, sequence (Q9EP73 19-238 limits assumed): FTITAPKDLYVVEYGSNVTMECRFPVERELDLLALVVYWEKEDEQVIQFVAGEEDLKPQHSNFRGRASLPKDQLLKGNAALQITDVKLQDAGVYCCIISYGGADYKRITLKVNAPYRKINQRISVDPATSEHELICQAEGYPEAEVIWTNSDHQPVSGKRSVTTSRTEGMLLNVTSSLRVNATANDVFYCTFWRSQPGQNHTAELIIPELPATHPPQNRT
Human mesothelin, sequence (Q13421 other isoform, or with tags, fused parts or gaps limits assumed): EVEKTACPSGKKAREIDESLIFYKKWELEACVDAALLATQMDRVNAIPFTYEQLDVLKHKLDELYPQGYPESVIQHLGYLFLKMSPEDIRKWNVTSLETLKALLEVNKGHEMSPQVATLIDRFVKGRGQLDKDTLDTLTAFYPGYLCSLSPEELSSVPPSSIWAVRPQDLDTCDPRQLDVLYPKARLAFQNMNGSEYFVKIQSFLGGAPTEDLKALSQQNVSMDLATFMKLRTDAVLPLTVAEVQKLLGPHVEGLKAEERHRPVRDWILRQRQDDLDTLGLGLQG

B1: v38423 (other)
heavy 1: NPPTFSPALLVVTEGDNATFTCSFSNTSESFVLNWYRMSPSNQTDALAAFPEDRSQPGQDARFRVTQLPNGRDFHMSVVRARRNDSGTYLCGAASLAPKAQIKESLRAELRVTEGGGGSGQVQLVESGGGLVQPGGSLRLSCSVSGIDLSSNPMIWVRQAPGKGLQYIGIIDTDGSTYYADWAKGRFTISKDSTTVYLQINSPRAEDTAVYYCARRLHGSSNGYYDDLWGQGTLVTVSSASTKGPSVFPLAPSSKSTSGGTAALGCLVKDYFPEPVTVSWNSGALTSGVHTFPAVLQSSGLYSLSSVVTVPSSSLGTQTYICNVNHKPSNTKVDKKVEPKSCDKTHTCPPCPAPEAAGGPSVFLFPPKPKDTLMISRTPEVTCVVVSVSHEDPEVKFNWYVDGVEVHNAKTKPREEQYNSTYRVVSVLTVLHQDWLNGKEYKCKVSNKALPAPIEKTISKAKGQPREPQVYVLPPSRDELTKNQVSLLCLVKGFYPSDIAVEWESNGQPENNYLTWPPVLDSDGSFFLYSKLTVDKSRWQQGNVFSCSVMHEALHNHYTQKSLSLSPG
light: DGQMTQSPSSVSASVGDRVTITCQASQSIYSYLSWYQQKPGQRPKLLIYKASTLASGVPSRFSGSGSGTDFTLTISSVQPEDFATYYCQQGYTVTNVDKNTFGGGTKVEIKRTVAAPSVFIFPPSDEQLKSGTASVVCLLNNFYPREAKVQWKVDNALQSGNSQESVTEQDSKDSTYSLSSTLTLSKADYEKHKVYACEVTHQGLSSPVTKSFNRGEC
heavy 2: EVQLVESGGGLVQPGGSLRLSCAASGVTFNYYGMSWIRQAPGKGLEWVASITSSGGRIYYPDSVKGRFTISRENTQKTLYLQMNSLRAEDTAVYYCTLDGRDGWVAYWGQGTLVTVSSGGGGSGGGGSGGGGSGGGGSNFMLTQPHSVSESPGKTVTISCKRNTGNIGSNYVNWYQQHEGSSPTTIIYRNDKRPDGVSDRFSGSIDRSSKSASLTISNLKTEDEADYFCQSYSSGFIFGGGTKLTVLA[human IgG1 Fc with changes not shown]
notes: Cldn18.2 Fab x CD3 scFv Fc, attenuated (KO) PD-1 attached to HC2 (N-term)
As for B1, the binding result in the assay with Human PD-L1 [1], in the assay with Mouse PD-L1 and with Cynomolgus monkey PD-L1 was “no binding” in each case. Besides, the Kd with Human CD3 (recombinant) [2] is 22 nM.

B2: v38410 (other)
heavy 1: EVQLVESGGGLVQPGGSLRLSCAASGVTFNYYGMSWIRQAPGKGLEWVASITSSGGRIYYPDSVKGRFTISRENTQKTLYLQMNSLRAEDTAVYYCTLDGRDGWVAYWGQGTLVTVSSASTKGPSVFPLAPSSKSTSGGTAALGCLVKDYFPEPVTVSWNSGALTSGVHTFPAVLQSSGLYSLSSVVTVPSSSLGTQTYICNVNHKPSNTKVDKKVEPKSCDKTHTCPPCPAPEAAGGPSVFLFPPKPKDTLMISRTPEVTCVVVSVSHEDPEVKFNWYVDGVEVHNAKTKPREEQYNSTYRVVSVLTVLHQDWLNGKEYKCKVSNKALPAPIEKTISKAKGQPREPQVYVYPPSRDELTKNQVSLTCLVKGFYPSDIAVEWESNGQPENNYKTTPPVLDSDGSFALVSKLTVDKSRWQQGNVFSCSVMHEALHNHYTQKSLSLSPGGGG[about 120 residues not shown]
light: NFMLTQPHSVSESPGKTVTISCKRNTGNIGSNYVNWYQQHEGSSPTTIIYRNDKRPDGVSDRFSGSIDRSSKSASLTISNLKTEDEADYFCQSYSSGFIFGGGTKLTVLGQPKAAPSVTLFPPSSEELQANKATLVCLISDFYPGAVTVAWKADSSPVKAGVETTTPSKQSNNKYAASSYLSLTPEQWKSHRSYSCQVTHEGSTVEKTVAPTECS
heavy 2: QVQLVESGGGLVQPGGSLRLSCSVSGIDLSSNPMIWVRQAPGKGLQYIGIIDTDGSTYYADWAKGRFTISKDSTTVYLQINSPRAEDTAVYYCARRLHGSSNGYYDDLWGQGTLVTVSSGGGGSGGGGSGGGGSGGGGSDGQMTQSPSSVSASVGDRVTITCQASQSIYSYLSWYQQKPGQRPKLLIYKASTLASGVPSRFSGSGSGTDFTLTISSVQPEDFATYYCQQGYTVTNVDKNTFGGGTKVEIKAAEPKSSDKTHTCPPCPAPEAAGGPSVFLFPPKPKDTLMISRTPEVTCVVVSVSHEDPEVKFNWYVDGVEVHNAKTKPREEQYNSTYRVVSVLTVLHQDWLNGKEYKCKVSNKALPAPIEKTISKAKGQPREPQVYVLPPSRDELTKNQVSLLCLVKGFYPSDIAVEWESNGQPENNYLTWPPVLDSDGSFFLYSKLTVDKSRWQQGNVFSCSVMHEALHNHYTQKSLSLSPG
With B2, the “EC50 (read off the curve); hybrid PD-1/PD-L1 reporter gene assay, delta RLU, PD-1+ Jurkat T cells with SNU-620 cells, bottom left graph; composite signal of CD3 engagement and PD-1:PD-L1 blockade” value in the assay with PD-L1 on cells [3] was ~0.01 nM. Besides, the binding result in the assay with Human PD-L2 is listed as “no binding (tested: 7.17-500 nM)”. Moreover, the values for the Kd in the assay with Human CD3 (recombinant) [2], with Human PD-L1 [4] and with Human PD-L1 [5] were 45 nM, 3.2 nM and 9.3 nM, respectively.

B3: v38401 (other)
heavy 1: NPPTFSPALLVVTEGDNATFTCSFSNTSESFVLNWYRMSPSNQTDALAAFPEDRSQPGQDARFRVTQLPNGRDFHMSVVRARRNDSGTYLCGAASLAPKAQIKESLRAELRVTEEAAAKEAAAKEVQLVESGGGLVQPGGSLRLSCAASGVTFNYYGMSWIRQAPGKGLEWVASITSSGGRIYYPDSVKGRFTISRENTQKTLYLQMNSLRAEDTAVYYCTLDGRDGWVAYWGQGTLVTVSSASTKGPSVFPLAPSSKSTSGGTAALGCLVKDYFPEPVTVSWNSGALTSGVHTFPAVLQSSGLYSLSSVVTVPSSSLGTQTYICNVNHKPSNTKVDKK[human IgG1 Fc with changes not shown]
light: NFMLTQPHSVSESPGKTVTISCKRNTGNIGSNYVNWYQQHEGSSPTTIIYRNDKRPDGVSDRFSGSIDRSSKSASLTISNLKTEDEADYFCQSYSSGFIFGGGTKLTVLGQPKAAPSVTLFPPSSEELQANKATLVCLISDFYPGAVTVAWKADSSPVKAGVETTTPSKQSNNKYAASSYLSLTPEQWKSHRSYSCQVTHEGSTVEKTVAPTECS
heavy 2: [about 100 residues not shown]GGSGGGSGGGSGGGSGGGSG[about 120 residues not shown][about 250 residues not shown]
notes: CD3 x Her2 Fab x scFv Fc, attenuated (KO) PD-1 attached to CD3 HC
As to B3, the binding result with Human PD-L1 [1], with Mouse PD-L1 and with Cynomolgus monkey PD-L1 was “no binding” throughout.

B4: v38449 (other)
heavy 1: DIQMTQSPSSLSASVGDRVTITCSASSSVSYMHWYQQKSGKAPKLLIYDTSKLASGVPSRFSGSGSGTDFTLTISSLQPEDFATYYCQQWSGYPLTFGQGTKLEIKGGGGSGGGGSGGGGSGGGGSQVQLVQSGAEVKKPGASVKVSCKASGYSFTGYTMNWVRQAPGQGLEWMGLITPYNGASSYNQKFRGKATMTVDTSTSTVYMELSSLRSEDTAVYYCARGGYDGRGFDYWGQGTLVTVSSGGGGSGEVQLVESGGGLVQPGGSLRLSCAASGVTFNYYGMSWIRQAPGKGLEWVASITSSGGRIYYPDSVKGRFTISRENTQKTLYLQMNSLRAEDTAVYYCTLDGRDGWVAYWGQGTLVTVSSASTKGPSVFPLAPSSKSTSGGTAALGCLVKDYFPEPVTVSWNSGALTSGVHTFPAVLQSSGLYSLSSVVTVPSSSLGTQTYICNVNHKPSNTKVDKK[human IgG1 Fc with changes not shown]
light: NFMLTQPHSVSESPGKTVTISCKRNTGNIGSNYVNWYQQHEGSSPTTIIYRNDKRPDGVSDRFSGSIDRSSKSASLTISNLKTEDEADYFCQSYSSGFIFGGGTKLTVLGQPKAAPSVTLFPPSSEELQANKATLVCLISDFYPGAVTVAWKADSSPVKAGVETTTPSKQSNNKYAASSYLSLTPEQWKSHRSYSCQVTHEGSTVEKTVAPTECS
heavy 2: [about 120 residues not shown]GGGSGDIQMTQSPSSLSASVGDRVTITCSASSSVSYMHWYQQKSGKAPKLLIYDTSKLASGVPSRFSGSGSGTDFTLTISSLQPEDFATYYCQQWSGYPLTFGQGTKLEIKGGGGSGGGGSGGGGSGGGGSQVQLVQSGAEVKKPGASVKVSCKASGYSFTGYTMNWVRQAPGQGLEWMGLITPYNGASSYNQKFRGKATMTVDTSTSTVYMELSSLRSEDTAVYYCARGGYDGRGFDYWGQGTLVTVSSAAEPKSSDKTHTCPPCPAPEAAGGPSVFLFPPKPKDTLMISRTPEVTCVVVSVSHEDPEVKFNWYVDGVEVHNAKTKPREEQYNSTYRVVSVLTVLHQDWLNGKEYKCKVSNKALPAPIEKTISKAKGQPREPQVYVLPPSRDELTKNQVSLLCLVKGFYPSDIAVEWESNGQPENNYLTWPPVLDSDGSFFLYSKLTVDKSRWQQGNVFSCSVMHEALHNHYTQKSLSLSPG
For B4, the “EC50 (read off the curve); hybrid PD-1/PD-L1 reporter gene assay, delta RLU, PD-1+ Jurkat T cells with HCT-116 cells; composite signal of CD3 engagement and PD-1:PD-L1 blockade” value with PD-L1 on cells [6] was ~0.1 nM. Moreover, the binding result in the assay with Human PD-L2 was “no binding (tested: 7.17-500 nM)”. Also, the Kd in the assay with Human CD3 (recombinant) [7] amounted to 41 nM; with Human PD-L1 [8], 2.8 nM; in the assay with Human PD-L1 [4], 17 nM; with Human mesothelin it was 0.25 nM.

Source of the values: patent publication US20250019440A1 (Zymeworks, published 2025).
